Reference: patent publication US20250223366A1, “MONOCLONAL ANTIBODIES AND BISPECIFIC ANTIBODY AGAINST C-MET” (BIOTHEUS INC., priority 2022, published 2025)

Key:
[1] = tested on: H292 human lung cancer tumor cells; assay: Experimental Model 3: H292 tumor-bearing model, different doses; type: in vivo, CB-17 SCID mice; conditions: last measured 30 days after inoculation
Description: In this experiment, CB-17 SCID mice were subcutaneously inoculated with H292 human lung cancer tumor cells to establish a tumor-bearing model and compare the anti-tumor effects of different doses of anti-EGFRxc-Met bispecific antibodies. The mouse model establishment process was the same as Experimental Model 1. The groups were divided according to the grouping and administration scheme in Table 8 and the corresponding doses of antibodies were injected.
The tumor volume and weight of mice were measured 2 to 3 times a week. The weight and tumor volume of mice were measured for the last time 30 days after the tumor cell inoculation, and then the mice were euthanized.

[2] = tested on: H292 human lung cancer tumor cells; assay: Experimental Model 4: H292 tumor-bearing model, comparison with Rybrevant; type: in vivo, CB-17 SCID mice; conditions: H292, single dose Day 14: 10 mg/kg; last measured 27 days after inoculation
Excerpt: In this experiment, CB-17 SCID mice were subcutaneously inoculated with H292 human lung cancer tumor cells to establish a tumor-bearing model, and the anti-EGFRxc-Met bispecific antibody was compared with the commercially available EGFRxc-Met bispecific antibody Rybrevant (purchased from Johnson & Johnson, batch number: LHS3G02) (this antibody had been published at various oncology conferences and was also known as JNJ-6372) in terms of anti-tumor effect. The mouse model establishment process was the same as that of Experimental Model 1. The groups were divided according to the grouping and dosing scheme in Table 9 and the corresponding doses of antibodies were injected.
The tumor volume and body weight of the mice were measured 2 to 3 times a week. The weight and tumor volume of the mice were measured for the last time 27 days after the inoculation of tumor cells, and the mice were euthanized.

A375/H1975/HCC827 cells = assay: ADCC induction, CD16a-NFAT-Luc Jurkat reporter gene cells; type: cell-based, human; conditions: A375, H1975, HCC827 target cells, CD16a-NFAT-Luc Jurkat effector cells, 6 h, FIG. 9
Excerpt: A375 cells were human malignant melanoma cells and purchased from Addexbio, which were capable of expressing EGFR and c-Met receptors. H1975 cells were human lung adenocarcinoma cells and purchased from Addexbio, which were capable of highly expressing EGFR and c-Met receptors. HCC827 cells were human non-small cell lung cancer cells and purchased from the Cell Bank of the Chinese Academy of Sciences, which were capable of highly expressing EGFR and c-Met receptors. […]

[3] = tested on: H1975 human lung cancer tumor cells; assay: Experimental Model 2: H1975 tumor-bearing model; type: in vivo, CB-17 SCID mice; conditions: last measured 24 days after inoculation
Description: In this experiment, CB-17 SCID mice were subcutaneously inoculated with H1975 human lung cancer tumor cells to establish a tumor-bearing model and determine the anti-tumor effect of the anti-EGFRxc-Met bispecific antibody. Sufficient H1975 cells were cultured and expanded in vitro, and the cells were collected after trypsin digestion. After washing 3 times with PBS, the cells were counted, and inoculated subcutaneously at 3×10^6 cells/mouse into the right abdomen of female 8-week-old CB-17 SCID mice (purchased from Beijing Weitong Lihua). The subcutaneous tumor formation of tumor cells in the mice was observed daily. The maximum width axis W and the maximum length axis L of the subcutaneous tumor on the right abdomen of each animal were measured with a vernier caliper, and the weight of each mouse was weighed with an electronic balance. The subcutaneous tumor volume on the right abdomen of each mouse was calculated according to the following formula: tumor volume T=1/2×W×W×L. The mice with too large and too small tumor volumes were eliminated, and the remained mice were divided into 4 groups according to the average tumor volume, with 6 mice in each group. The mice were divided into groups according to the grouping and dosing scheme in Table 7 and injected with the corresponding doses of antibodies.
The tumor volume and body weight of mice were measured 2 to 3 times a week. The body weight and tumor volume of mice were measured for the last time 24 days after the tumor cell inoculation, and then the mice were euthanized.

HCC827-HGF luc = assay: Cell killing combined with EGFR small molecule inhibitor, HCC827-HGF luc cells with or without PBMC; type: cell-based, human; conditions: combined with Gefitinib or Erlotinib, 48 h, FIG. 11
Excerpt: Using lentiviral transfection, cDNAs encoding luciferase (the sequence was from Uniprot, P08659) and human HGF (hepatocyte growth factor) (the sequence was from UniProtKB P14210) were constructed on the pLVX-neu vector by General Biol, and the plasmid was transfected into HCC827 cells to construct a cell line (HCC827-HGF luc) with stable co-expression of luciferase and HGF. Since overexpression of HGF makes HCC827 cells resistant to first-generation EGFR small molecule inhibitors, an experiment of combining antibodies with first-generation small molecules was designed. The expanded luciferase stably transfected cell line (HCC827-HGF Luc) was digested, centrifuged, counted, and resuspended in working medium (10% FBS+RPMI 1640). The cells were adjusted to a density of 3×10^4/ml, and added to a culture plate at 100 μL per well. PBMC cells were resuscitated from liquid nitrogen, centrifuged, then resuspended in working medium, and added to a culture flask for adherent culture overnight to remove mononuclear cells. […]

HCC827 cells = assay: Binding activity to tumor cells, HCC827 (flow cytometry); parameters: species or system human; conditions: high expression of EGFR and c-Met
Excerpt: A375 cells were human malignant melanoma cells and purchased from Addexbio, which were capable of low expression of EGFR and c-Met receptors. H292 cells were human lung adenocarcinoma cells and purchased from procell, which were capable of high expression of EGFR and c-Met receptors. HCC827 cells were human non-small cell lung cancer cells and purchased from the Cell Bank of the Chinese Academy of Sciences, which were capable of high expression of EGFR and c-Met receptors. The expanded cells were adjusted to an appropriate cell density, and added to a 96-well flow plate. After centrifugation, the gradiently diluted samples to be tested were added and incubated at 4° C. for 1 hour. The cells were washed twice with PBS, then a fluorescent secondary antibody, diluted to an appropriate concentration, was added, incubated at 4° C. for 30 min, and washed twice with PBS. The cells were resuspended by PBS, and detected on a CytoFlex flow cytometer, and corresponding MFI was calculated.

[4] = tested on: H1975-HGF human lung cancer cells; assay: Experimental Model 5: H1975-HGF tumor-bearing model, combination with Osimertinib; type: in vivo, CB-17 SCID mice; conditions: antibody Day 16 and Day 18: 3 mg/kg, Osimertinib Days 16 to 22: 3 mg/kg/day, last measured 28 days after inoculation
Excerpt: In this experiment, the in vivo efficacy of the bispecific antibody of the present application in combination with an small molecule EGFR inhibitor (e.g., Osimertinib) was detected. Using the lentiviral transfection method, the cDNA encoding human HGF (hepatocyte growth factor) (the sequence was from UniProtKB P14210) was constructed on the pLVX-neu vector by General Biol, and the plasmid was transfected into H1975 cells to construct a cell line ([…]) with stable expression of HGF. In this experiment, CB-17 SCID mice were subcutaneously inoculated with H1975-HGF human lung cancer cells to establish a tumor-bearing model and determine the anti-tumor effect of the anti-EGFRxc-Met bispecific antibody. The model construction process was the same as that of Experimental Model 2. The mice were divided into groups according to the grouping and dosing scheme in Table 10 and the corresponding doses of antibodies were injected.
The tumor volume and body weight of mice were measured 2 to 3 times a week. The body weight and tumor volume of mice were measured for the last time 28 days after the tumor cell inoculation, and then the mice were euthanized.

[5] = tested on: H292 human lung cancer tumor cells; assay: Experimental Model 1: H292 tumor-bearing model; type: in vivo, CB-17 SCID mice; conditions: H292, Day 7: 10 mg/kg; Day 21: 2 mg/kg; last measured 29 days after inoculation
Description: In this experiment, CB-17 SCID mice were subcutaneously inoculated with H292 human lung cancer tumor cells to establish a tumor-bearing model and determine the anti-tumor effect of the anti-EGFRxc-Met bispecific antibody. Sufficient H292 cells were cultured and expanded in vitro, and the cells were collected after trypsin digestion. After washing with PBS for 3 times, the cells were counted and inoculated subcutaneously at the right abdomen of female 8-week-old CB-17 SCID mice (purchased from Beijing Weitong Lihua) at an amount of 3×10^6 cells/mouse. The subcutaneous tumor formation of tumor cells in the mice was observed daily, and the maximum width axis W and the maximum length axis L of the subcutaneous tumor on the right abdomen of each animal were measured with a vernier caliper, and the weight of each mouse was weighed with an electronic balance. The subcutaneous tumor volume on the right abdomen of each mouse was calculated according to the following formula: tumor volume T=1/2×W×W×L. The mice with too large and too small tumor volumes were eliminated, and the remained mice were divided into 4 groups according to the average tumor volume, with 6 mice in each group. […]
The tumor volume and weight of mice were measured 2 to 3 times a week. The weight and tumor volume of mice were measured for the last time 29 days after the tumor cell inoculation, and then the mice were euthanized.

B1: EGFRxMET-136 Afu: afucosylated bispecific antibody; c-Met HC/LC SEQ ID NO: 23/24, EGFR HC/LC SEQ ID NO: 25/26; the final molecule (antibody)
heavy 1: EVQLQESGPGLVKPSETLSLTCTVSGGSVTSVNYYWKWIRQPPGKGLEWIGYISYSGNTNYNPSLKSRVTISVDTSKNQFSLKLSSVTAADTAVYYCVRAPYYYMDVWSKGTTVTVSSASTKGPSVFPLAPSSKSTSGGTAALGCQVEDYFPEPVTVSWNSGALTSGVHTFPAVLQSSGLYELSSVVTVPSSSLGTQTYICNVNHKPSNTKVDKKV[skipping human IgG1 Fc with changes]
light 1: DIVMTQSPSSVSASVGDRVTITCRASQGISSWLAWYQQKPGKAPKLLIYAVSSLQSGVPSRFSGSGSGTDFTLTISSLQPEDFATYFCQQANSFPLTFGGGTKVEIKRTVAAPSVFIFPPSDEQLKSGRASVVCLLNNFYPREAKVQWKVDNALQSGNSQESVTEQDSKDSTYSLSSRLQLSKADYEKHKVYACEVTHQGLSSPVTKSFNRGEC
heavy 2: EVQLVESGGGVVQPGRSLRLSCAASGFTFSTYGMHWVRQAPGKGLEWVAVIWDDGSYKYYGDSVKGRFTISRDNSKNTLYLQMNSLRAEDTAVYYCARDGITMVRGVMKDYFDYWGQGTLVTVSSASTKGPSVFPRAPSSKSTSGGTAALGCLVRDYFPEPVTVSWNSGALTSGVHTFPAVLQSSGLYSLSSVVTVPSSSLGTQTYICNVNHKPSNTKVDKKV[skipping human IgG1 Fc with changes]
light 2: DIQLTQSPSSLSASVGDRVTITCRASQDISSALVWYQQKPGKAPKLLIYDASSLESGVPSRFSGSESGTDFTLTISSLQPEDFATYYCQQFNSYPLTFGGGTKVEIKRTVAAPSVFIFPPSDEELKSGTASVQCLLNNFYPREAKVQWKVDNALQSGNSQESVTEQDSKDSTYSLSSELTLSKADYEKHKVYACEVTHQGLSSPVTKSFNRGEC
modifications: afucosylated
notes: afucosylated bispecific antibody; the final molecule
TGI ([1]; H292, 4 mg/kg/time Day 14, 18, 21): 40.3%
TGI ([1]; H292, 16 mg/kg/time Day 14, 18, 21): 90.5%
TGI [2]: 79.9%
ADCC effect (A375/H1975/HCC827 cells): stronger ADCC effect than the wild-type antibody containing fucose
TGI ([3]; H1975, 2 mg/kg Day 7 and Day 21): 97.4%
TGI ([3]; H1975, 8 mg/kg Day 7 and Day 21): 99.3%
TGI ([3]; H1975, 32 mg/kg Day 7 and Day 21): 99.4%
killing of tumor cells, combination versus single agents, with PBMCs (HCC827-HGF luc; after adding PBMCs): synergistic effect
killing of tumor cells by small molecule inhibitors, without PBMCs (HCC827-HGF luc; without PBMCs): promoted the killing of tumors by the small molecule inhibitors
EC50 (HCC827 cells): 3.67 nM
TGI [4]: 72.3%
tumor (volume) inhibition rate (TGI) [5]: 97.3%
